Data on 13 proteins can be found in the supplement of paper PMC11876631.

± gives the standard deviation of the averaged measurements. Laboratory Escherichia coli strains with one amino-acid change in an essential protein, pooled on minimal glucose agar with carbenicillin or gentamicin at twice the control MIC (plus kanamycin and chloramphenicol for the plasmids), 48 h. Fold change of barcode share against drug-free plates; higher = less susceptible. Active = above 20 in both replicates (the paper's putatively resistant). '<' = one read or none on drug, '>' = one read or none on a drug-free plate. Shares are relative, so most strains fall below 1 when a few take over. Listed are strains with at least 15 reads on both drug-free plates, and hits; most hits rest on fewer reference reads. Replicate rank correlation about 0.5. Edits are read from barcodes. Bounds are passed on as bounds.

The target of this series is Escherichia coli (laboratory strain). The series can be described thus: barcode share on antibiotic plates over drug-free plates; higher = less susceptible. How it is done:
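A pool of E. coli strains, each edited to carry one amino-acid change in an essential protein, was grown for 48 h on minimal glucose agar with or without antibiotic; strain barcodes were sequenced; mean of two replicates.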

Where [1] appears, read: antibiotic: carbenicillin, 2× MIC (3.1 µg/mL).
Where [2] appears, read: antibiotic: gentamicin, 2× MIC (MIC 0.45 µg/mL).

B1: purH V396P (protein)
chain: MQQRRPVRRALLSVSDKAGIVEFAQALSARGVELLSTGGTARLLAEKGLPVTEVSDYTGFPEMMDGRVKTLHPKVHGGILGRRGQDDAIMEEHQIQPIDMVVVNLYPFAQTVAREGCSLEDAVENIDIGGPTMVRSAAKNHKDVAIVVKSSDYDAIIKEMDDNEGSLTLATRFDLAIKAFEHTAAYDSMIANYFGSMVPAYHGESKEAAGRFPRTLNLNFIKKLDMRYGENSHQQAAFYIEENVKEASVATATQVQGKALSYNNIADTDAALECVKEFAEPACVIVKHANPCGVAIGNSILDAYDRAYKTDPTSAFGGIIAFNRELDAETAQAIISRQFVEVIIAPSASEEALKITAAKQNVRVLTCGQWGERVPGLDFKRVNGGLLVQDRDLGMPGAEELRVVTKRQPSEQELRDALFCWKVAKFVKSNAIVYAKNNMTIGIGAGQMSRVYSAKIAGIKAADEGLEVKGSSMASDAFFPFRDGIDAAAAAGVTCVIQPGGSIRDDEVIAAADEHGIAMLFTDMRHFRH
With B1, the “fold change of barcode share” value worked out at 0.304 ± 0.15 under setting [1] and 0.00735 ± 0.0044 under setting [2].

B2: purK I213A (protein)
chain: MKQVCVLGNGQLGRMLRQAGEPLGIAVWPVGLDAEPAAVPFQQSVITAEIERWPETALTRELARHPAFVNRDVFPIIADRLTQKQLFDKLHLPTAPWQLLAERSEWPAVFDRLGELAIVKRRTGGYDGRGQWRLRANETEQLPAECYGECIVEQGINFSGEVSLVGARGFDGSTVFYPLTHNLHQDGILRTSVAFPQANAQQQAQAEEMLSAAMQELGYVGVMAMECFVTPQGLLINELAPRVHNSGHWTQNGASISQFELHLRAITDLPLPQPVVNNPSVMINLIGSDVNYDWLKLPLVHLHWYDKEVRPGRKVGHLNLTDSDTSRLTATLEALIPLLPPEYASGVIWAQSKFG
On to B2, for which the “fold change of barcode share” value reads like this: under setting [1], 0.371 ± 0.23; under setting [2], 0.00696 ± 0.0074.

B3: purK I283Q (protein)
chain: MKQVCVLGNGQLGRMLRQAGEPLGIAVWPVGLDAEPAAVPFQQSVITAEIERWPETALTRELARHPAFVNRDVFPIIADRLTQKQLFDKLHLPTAPWQLLAERSEWPAVFDRLGELAIVKRRTGGYDGRGQWRLRANETEQLPAECYGECIVEQGINFSGEVSLVGARGFDGSTVFYPLTHNLHQDGILRTSVAFPQANAQQQAQAEEMLSAIMQELGYVGVMAMECFVTPQGLLINELAPRVHNSGHWTQNGASISQFELHLRAITDLPLPQPVVNNPSVMQNLIGSDVNYDWLKLPLVHLHWYDKEVRPGRKVGHLNLTDSDTSRLTATLEALIPLLPPEYASGVIWAQSKFG
Regarding B3, the “fold change of barcode share” value reads like this: under setting [1], 0.463 ± 0.12; under setting [2], less than 0.0184.

B4: purK L239P (protein)
chain: MKQVCVLGNGQLGRMLRQAGEPLGIAVWPVGLDAEPAAVPFQQSVITAEIERWPETALTRELARHPAFVNRDVFPIIADRLTQKQLFDKLHLPTAPWQLLAERSEWPAVFDRLGELAIVKRRTGGYDGRGQWRLRANETEQLPAECYGECIVEQGINFSGEVSLVGARGFDGSTVFYPLTHNLHQDGILRTSVAFPQANAQQQAQAEEMLSAIMQELGYVGVMAMECFVTPQGLLINEPAPRVHNSGHWTQNGASISQFELHLRAITDLPLPQPVVNNPSVMINLIGSDVNYDWLKLPLVHLHWYDKEVRPGRKVGHLNLTDSDTSRLTATLEALIPLLPPEYASGVIWAQSKFG
B4: the “fold change of barcode share” value by setting is: under setting [1], 0.359 ± 0.12; under setting [2], less than 0.00277.

B5: purK L239D (protein)
chain: MKQVCVLGNGQLGRMLRQAGEPLGIAVWPVGLDAEPAAVPFQQSVITAEIERWPETALTRELARHPAFVNRDVFPIIADRLTQKQLFDKLHLPTAPWQLLAERSEWPAVFDRLGELAIVKRRTGGYDGRGQWRLRANETEQLPAECYGECIVEQGINFSGEVSLVGARGFDGSTVFYPLTHNLHQDGILRTSVAFPQANAQQQAQAEEMLSAIMQELGYVGVMAMECFVTPQGLLINEDAPRVHNSGHWTQNGASISQFELHLRAITDLPLPQPVVNNPSVMINLIGSDVNYDWLKLPLVHLHWYDKEVRPGRKVGHLNLTDSDTSRLTATLEALIPLLPPEYASGVIWAQSKFG
Regarding B5, the “fold change of barcode share” value under setting [1] came to 0.541 ± 0.21.

B6: purK V6A (protein)
chain: MKQVCALGNGQLGRMLRQAGEPLGIAVWPVGLDAEPAAVPFQQSVITAEIERWPETALTRELARHPAFVNRDVFPIIADRLTQKQLFDKLHLPTAPWQLLAERSEWPAVFDRLGELAIVKRRTGGYDGRGQWRLRANETEQLPAECYGECIVEQGINFSGEVSLVGARGFDGSTVFYPLTHNLHQDGILRTSVAFPQANAQQQAQAEEMLSAIMQELGYVGVMAMECFVTPQGLLINELAPRVHNSGHWTQNGASISQFELHLRAITDLPLPQPVVNNPSVMINLIGSDVNYDWLKLPLVHLHWYDKEVRPGRKVGHLNLTDSDTSRLTATLEALIPLLPPEYASGVIWAQSKFG
For B6, the “fold change of barcode share” value runs as follows: under setting [1], 0.296 ± 0.013; under setting [2], less than 0.0199.

B7: purK M282D (protein)
chain: MKQVCVLGNGQLGRMLRQAGEPLGIAVWPVGLDAEPAAVPFQQSVITAEIERWPETALTRELARHPAFVNRDVFPIIADRLTQKQLFDKLHLPTAPWQLLAERSEWPAVFDRLGELAIVKRRTGGYDGRGQWRLRANETEQLPAECYGECIVEQGINFSGEVSLVGARGFDGSTVFYPLTHNLHQDGILRTSVAFPQANAQQQAQAEEMLSAIMQELGYVGVMAMECFVTPQGLLINELAPRVHNSGHWTQNGASISQFELHLRAITDLPLPQPVVNNPSVDINLIGSDVNYDWLKLPLVHLHWYDKEVRPGRKVGHLNLTDSDTSRLTATLEALIPLLPPEYASGVIWAQSKFG
In the case of B7, the “fold change of barcode share” value under setting [1] turned out to be 0.427 ± 0.067.

B8: purK I213W (protein)
chain: MKQVCVLGNGQLGRMLRQAGEPLGIAVWPVGLDAEPAAVPFQQSVITAEIERWPETALTRELARHPAFVNRDVFPIIADRLTQKQLFDKLHLPTAPWQLLAERSEWPAVFDRLGELAIVKRRTGGYDGRGQWRLRANETEQLPAECYGECIVEQGINFSGEVSLVGARGFDGSTVFYPLTHNLHQDGILRTSVAFPQANAQQQAQAEEMLSAWMQELGYVGVMAMECFVTPQGLLINELAPRVHNSGHWTQNGASISQFELHLRAITDLPLPQPVVNNPSVMINLIGSDVNYDWLKLPLVHLHWYDKEVRPGRKVGHLNLTDSDTSRLTATLEALIPLLPPEYASGVIWAQSKFG
Turning to B8, the “fold change of barcode share” value is, setting by setting: under setting [1], 0.508 ± 0.072; under setting [2], 0.0147 ± 0.0046.

B9: purK I213P (protein)
chain: MKQVCVLGNGQLGRMLRQAGEPLGIAVWPVGLDAEPAAVPFQQSVITAEIERWPETALTRELARHPAFVNRDVFPIIADRLTQKQLFDKLHLPTAPWQLLAERSEWPAVFDRLGELAIVKRRTGGYDGRGQWRLRANETEQLPAECYGECIVEQGINFSGEVSLVGARGFDGSTVFYPLTHNLHQDGILRTSVAFPQANAQQQAQAEEMLSAPMQELGYVGVMAMECFVTPQGLLINELAPRVHNSGHWTQNGASISQFELHLRAITDLPLPQPVVNNPSVMINLIGSDVNYDWLKLPLVHLHWYDKEVRPGRKVGHLNLTDSDTSRLTATLEALIPLLPPEYASGVIWAQSKFG
Turning to B9, the “fold change of barcode share” value under setting [1] was 0.945 ± 0.16 and the “fold change of barcode share” value under setting [2] came out at 0.0244 ± 0.018.

B10: purK M282W (protein)
chain: MKQVCVLGNGQLGRMLRQAGEPLGIAVWPVGLDAEPAAVPFQQSVITAEIERWPETALTRELARHPAFVNRDVFPIIADRLTQKQLFDKLHLPTAPWQLLAERSEWPAVFDRLGELAIVKRRTGGYDGRGQWRLRANETEQLPAECYGECIVEQGINFSGEVSLVGARGFDGSTVFYPLTHNLHQDGILRTSVAFPQANAQQQAQAEEMLSAIMQELGYVGVMAMECFVTPQGLLINELAPRVHNSGHWTQNGASISQFELHLRAITDLPLPQPVVNNPSVWINLIGSDVNYDWLKLPLVHLHWYDKEVRPGRKVGHLNLTDSDTSRLTATLEALIPLLPPEYASGVIWAQSKFG
Take B10: the “fold change of barcode share” value reads like this: under setting [1], 0.329 ± 0.1; under setting [2], less than 0.0188.

B11: purK L239A (protein)
chain: MKQVCVLGNGQLGRMLRQAGEPLGIAVWPVGLDAEPAAVPFQQSVITAEIERWPETALTRELARHPAFVNRDVFPIIADRLTQKQLFDKLHLPTAPWQLLAERSEWPAVFDRLGELAIVKRRTGGYDGRGQWRLRANETEQLPAECYGECIVEQGINFSGEVSLVGARGFDGSTVFYPLTHNLHQDGILRTSVAFPQANAQQQAQAEEMLSAIMQELGYVGVMAMECFVTPQGLLINEAAPRVHNSGHWTQNGASISQFELHLRAITDLPLPQPVVNNPSVMINLIGSDVNYDWLKLPLVHLHWYDKEVRPGRKVGHLNLTDSDTSRLTATLEALIPLLPPEYASGVIWAQSKFG
As for B11, the “fold change of barcode share” value is 0.228 ± 0.1 under setting [1] and 0.0102 ± 0.0082 under setting [2].

B12: purK M282Q (protein)
chain: MKQVCVLGNGQLGRMLRQAGEPLGIAVWPVGLDAEPAAVPFQQSVITAEIERWPETALTRELARHPAFVNRDVFPIIADRLTQKQLFDKLHLPTAPWQLLAERSEWPAVFDRLGELAIVKRRTGGYDGRGQWRLRANETEQLPAECYGECIVEQGINFSGEVSLVGARGFDGSTVFYPLTHNLHQDGILRTSVAFPQANAQQQAQAEEMLSAIMQELGYVGVMAMECFVTPQGLLINELAPRVHNSGHWTQNGASISQFELHLRAITDLPLPQPVVNNPSVQINLIGSDVNYDWLKLPLVHLHWYDKEVRPGRKVGHLNLTDSDTSRLTATLEALIPLLPPEYASGVIWAQSKFG
Take B12: the “fold change of barcode share” value is, setting by setting: under setting [1], 0.358 ± 0.1; under setting [2], less than 0.0156.

B13: purK I213Q (protein)
chain: MKQVCVLGNGQLGRMLRQAGEPLGIAVWPVGLDAEPAAVPFQQSVITAEIERWPETALTRELARHPAFVNRDVFPIIADRLTQKQLFDKLHLPTAPWQLLAERSEWPAVFDRLGELAIVKRRTGGYDGRGQWRLRANETEQLPAECYGECIVEQGINFSGEVSLVGARGFDGSTVFYPLTHNLHQDGILRTSVAFPQANAQQQAQAEEMLSAQMQELGYVGVMAMECFVTPQGLLINELAPRVHNSGHWTQNGASISQFELHLRAITDLPLPQPVVNNPSVMINLIGSDVNYDWLKLPLVHLHWYDKEVRPGRKVGHLNLTDSDTSRLTATLEALIPLLPPEYASGVIWAQSKFG
Consider B13, for which the “fold change of barcode share” value runs as follows: under setting [1], 0.483 ± 0.035; under setting [2], less than 0.00206.
